This note sets out measurements from ChEMBL document CHEMBL4888484, “Replenishing the malaria drug discovery pipeline: Screening and hit evaluation of the MMV Hit Generation Library 1 (HGL1) against asexual blood stage Plasmodium falciparum ,using a nano luciferase reporter read-out” (2022).

One may read the % Inhibition as the relative decrease from the control value, in per cent.

The campaign covered roughly 150,000 compounds. About 540 (0.36%) showed an effect of 50% or more. The list shows a part of the results.

This assay deals with Plasmodium falciparum. Briefly: Primary screen in NF54 nanoGlo assay, in single point, at 2uM, 72h; a lower Z score goes with more inhibition. As to conditions: timepoint 72 hour. It counts as functional, Erythrocyte.
As to `CCn1cnnc1CN(C)C(=O)c1cc(-c2cnn(C)c2)nc2c(C)c(C)ccc12`, the “% Inhibition” value is -6% and the Z score amounted to 1.15.

In the case of `COc1nc(NCC2(N(C)C)CCCCC2)ncc1F`, the “% Inhibition” value came to 0% and the Z score is recorded as -0.06.

As to `COc1cc(F)c(-c2cccc(C(=O)NCCN3CCNC3=O)c2)cc1F`, the “% Inhibition” value was -17% and the Z score stood at 3.16.

For `Cc1ccncc1CCCN1CCO[C@H](c2nnc(C(C)C)o2)C1`, the “% Inhibition” value is -17% and the Z score was found to be 1.97.

Turning to `C[C@@]1(O)COC2(CN(C(=O)CCc3conc3-c3ccccc3)C2)C1`, the “% Inhibition” value was -4% and the Z score is 0.68.

In the case of `Cc1nc(CCN(C)CC(C)(C)CN2CCCC2)no1`, the “% Inhibition” value is -22% and the Z score is listed as 3.55.

Consider `O=C(Cc1c(F)cccc1Cl)NC1(c2cccs2)CCOCC1`, for which the “% Inhibition” value is recorded as 5% and the Z score is listed as -1.02.

With `CCc1ccccc1NC(=O)c1cnc(-c2ccc(C(F)(F)F)cc2)nc1C`, the “% Inhibition” value was -15% and the Z score is 1.54.

Consider `CS(=O)(=O)Cc1nc(CN2CCOC[C@H]2C2CC2)cs1`, for which the “% Inhibition” value was -6% and the Z score stood at 1.05.

`O=C(CCCn1cncn1)N[C@H]1COc2cccc(Cl)c21`: the “% Inhibition” value was found to be 3% and the Z score was -0.35.

Turning to `CCOCC(=O)N[C@@H](CC)c1ncccc1C`, the “% Inhibition” value is -2% and the Z score was 0.5.

With `O=C(c1cccnc1)N1C[C@H]2CC[C@@H](C1)N(C(=O)NCc1ccc(F)cc1)C2`, the “% Inhibition” value is reported as -5% and the Z score amounted to 1.

Regarding `Cn1ccnc1C1(CNC(=O)CCC2CCCOC2)NC(=O)NC1=O` (stereo unspecified), the “% Inhibition” value is reported as -11% and the Z score is given as 1.16.

Consider `CCn1cc(CNC(=O)[C@H]2C[C@@](C)(C(=O)OC)N(C)[C@H]2c2ccccc2C)cn1`, for which the “% Inhibition” value is listed as -2% and the Z score turned out to be 0.46.

For `CC(C)C(=O)N(Cc1ccc(OS(=O)(=O)C(C)C)cc1)CC1CC1`, the “% Inhibition” value is -21% and the Z score was 4.

Take `O=C(CNc1ccc(N2CCOCC2)cc1)Nc1cc(S(=O)(=O)N2CCOCC2)ccc1N1CCOCC1`: the “% Inhibition” value is given as -2% and the Z score was 0.35.

On to `COc1ccc(C(=O)Nc2nc(-c3ccccc3)cc(-c3ccc(Cl)cc3)n2)cc1`, for which the “% Inhibition” value is recorded as -17% and the Z score stood at 3.29.

Consider `CCCS(=O)(=O)NC1CCN(Cc2cc3c(cc2OCC)C[C@H](C)O3)CC1`, for which the “% Inhibition” value came out at 4% and the Z score is -0.52.

Consider `O=C(N[C@H]1CCc2[nH]cnc2C1)c1cc(C(F)F)ncn1`, for which the “% Inhibition” value is reported as -1% and the Z score was found to be 0.16.

As to `CCc1ccc(CN(C)Cc2ccc(OC)nc2)nc1`, the “% Inhibition” value is reported as -8% and the Z score turned out to be 1.59.

As for `COc1cccc(CN(CC(=O)NCCc2ccc(OC(F)F)cc2)C2CCC(O)CC2)c1` (stereo unspecified), the “% Inhibition” value was -13% and the Z score stood at 1.37.

As to `O=C(NCc1nc(-c2cc[nH]c(=O)c2)no1)c1ccn[nH]1`, the “% Inhibition” value was -13% and the Z score is on record as 2.17.

As to `N#Cc1ccc(N[C@H]2C[C@@H](c3cc(N4CC[C@H](O)C4)ncn3)C2)nc1`, the “% Inhibition” value is -7% and the Z score is 0.81.
